Read counts are not given, so values of variants with three or more changes are uncertain.

To fix the notation:
B1: LINE1-mini (parent)
chain: GGCAGAGCUCAACACAGCGUGGCAAAGUGGCUGUGGCUAGACUGCC

Variants of B1 are the subject of the data set. Nature of the data set: self-cleavage, relative activity (ratio to wild type); higher = more cleavage; in vitro, sequencing; the parent is a self-cleaving ribozyme.
As for GGCAGAGCUCAACACAGCGUGGCAAAGUGGUUGAGUCUAGACUGCC [C31U U34A G36U], the self-cleavage was 0.01.
For GGCAGAGGUCAAGUCAGCGUAGCAAAGUGGCUGUGGCUAGUCUGCC [C8G C13G A14U G21A A41U], the self-cleavage amounted to 0.01.
The result for GGCAGAGCUCAACACAGCGUGGUAAAGCGGCUGUGGCUAGACUGAC [C23U U28C C45A] reads 0.2; that for GGGAGAGCUCAACCCAGCGUGGCAAUGUGGCUGUGGCUAGACUGCC [C3G A14C A26U], 0.1; that for GGCAGAGGUCAACACAGCGUGGAAAAGAGGCUGUGGCGAGACUGCC [C8G C23A U28A U38G], 0.
The result for GGCAGAGCUCAACACAGCGCGGCAAUGUGGCUGUGGCUAGAUUGCC [U20C A26U C42U] reads 0.27.
As to GGCAGAGCUUAUCACAGCGGGGCAAAGUGGCUGUGGCUAGACUGCA [C10U A12U U20G C46A], the self-cleavage was found to be 0.05.
With GGCAGAGCUCAACACAGAGUAGCAAAGUCGCUGUGGCUAGACUGCC [C18A G21A G29C], the self-cleavage amounted to 2.21.
The result for GGCAGAGCUCAACACAGCGUGGCAAAGUGUCUGUGGGUAGCCUGCC [G30U C37G A41C] reads 0.02; that for GGCCGAACUCAACACAACGUGGCAAAUUAGCUGUGGUUAGAUGGCC [A4C G7A G17A G27U G29A C37U C42U U43G], 0.3; that for GGCAGAGCUCAACAUAGUGUGGCUAAGUGGCUGUGGCUAGACUGCU [C15U C18U A24U C46U], 0.14.
Consider GGCAGAGCUCAACUCAGGGUGGCGUAGUGGCUGUGGCUAGAAUGCC [A14U C18G A24G A25U C42A], for which the self-cleavage was 0.07.
Take GACCGAGCUCAACACAGCGUGGCAAAGUGGCUGUGGCUAGACUACC [G2A A4C G44A]: the self-cleavage was found to be 0.13.
Turning to GGGUGAGCUCAACACAGCGUGGCAAAGUGGGUGUGGCUAGACUGCC [C3G A4U C31G], the self-cleavage was 0.08.
GGCGGAGGUCAAGACAGUGUGGCAAAGUGUCUGUGGCUAGACUGCC [A4G C8G C13G C18U G30U]: the self-cleavage amounted to 0.03.
With GGCAGAGCUCAACACAGCGUGGUAAACUGGCUGUGGCCAGACCGCC [C23U G27C U38C U43C], the self-cleavage worked out at 0.02.
As for GGCAGAGCUCUACACAGCGUGGCAAAGUCGCUGUGGCUAGACUGUC [A11U G29C C45U], the self-cleavage stood at 0.13.
In the case of GGCUGAGGUCUACACAGCGUGGCAAAGUGGCUCUGGCUAGACUGCC [A4U C8G A11U G33C], the self-cleavage came to 0.04.
The result for GGCAGAACGCAACACAGCGCGGCAAAGUUGCUGUGGCUAGACUGGC [G7A U9G U20C G29U C45G] reads 0.06; that for GGCAGAGCUCUACACACCGUGUCAAAGUCGCUUUGGCUAGAAUGCC [A11U G17C G22U G29C G33U C42A], 0.02.
The result for GGCAUAGCUCCACACAGCGUGGCAAAGUGGCUGUUGCUAGACUGCC [G5U A11C G35U] reads 0.01; that for GGUAGAGCUCACCACAGCGUGGCAAAGUGGCUGAUGCUAGACUGCC [C3U A12C U34A G35U], 0.01.
As to GGCAGAGAUCAAGACAGCCUGGCAAAGUGUCUGUGGCUAGACAGCC [C8A C13G G19C G30U U43A], the self-cleavage was 0.12.
As to AGCAGAGCCAAACACAGCGUGGCAAAGUGGUUGUGGCUAGACUGCC [G1A U9C C10A C31U], the self-cleavage turned out to be 0.07.
For GGCUGAACUCAACACAGCGUUGCAAAGUGGCUGUGGCUUGACGGCC [A4U G7A G21U A39U U43G], the self-cleavage is 0.01.
GGCAGACCUCUACACCGUGUGGCAAAGUGUCUGUGGCUAGACUGAC [G7C A11U A16C C18U G30U C45A]: the self-cleavage was determined as 0.01.
The result for GACAGAGCUCCACACAGCGUGGCAAAGUGGCUGUGGCUUGACUGCC [G2A A11C A39U] reads 0.04.
In the case of GGCAGAGCUAAACACAGCGUUGCAAAGGAGUUGUGGCUAGACUGCC [C10A G21U U28G G29A C31U], the self-cleavage came out at 0.03.
As for GGCAGAGCUCAACACAGCGUGGUAAAGUGGCUGUGACUAGAGUGCC [C23U G36A C42G], the self-cleavage came to 0.05.
The result for GGUAGAGCUCAAAACAGUGUGGCAAAUUGGCUGUGGCUAGACUGCC [C3U C13A C18U G27U] reads 0.04; that for GGGAGACCUCAACACAGCGUGGCAAAGUGGCUCUGGCUAGACUGCC [C3G G7C G33C], 0.01; that for GGCAGAGCUCAUCACAGAGUGGCAAAGUGGCUGUGGUUAGACUGCC [A12U C18A C37U], 0.01.
With CGCAGAGCUCAACACAGCGUGGCAAAGUGGCACUGGCUAGAGUGCC [G1C U32A G33C C42G] the figure was 0.02; with GGCAGAGCUCAACACUGCGUGGCAAAGUGACUGUGCCUAGACUGUC [A16U G30A G36C C45U], 0.04; with GGCAGAGCUCAACACAGCAUGGUAAAGUGGCUGUGGCCAGGCUGCC [G19A C23U U38C A41G], 0.28.
On to GGCGGAGCUCAACACAGCGUGGCAAAGUGGCCGUGGCUUGACUGCC [A4G U32C A39U], for which the self-cleavage amounted to 0.01.
As for GGCAGAGCCCAACACAGCGUGGCAAAGUGGCUGUGGCGAGACUGCA [U9C U38G C46A], the self-cleavage was determined as 0.
With GGCAGAGCUCAACACAGCGUGGCUAACUGGCUGUGGCUAUACUGCC [A24U G27C G40U], the self-cleavage was 0.11.
With GGCAGAGUUCAACAGAGCGAGGCAAAGGGGCUGUGGCUAGACUGCC [C8U C15G U20A U28G], the self-cleavage was found to be 0.06.
With GGCAGUGCUCAACACAGCGUGGCGAAGUGGCUGUGGCUAGACUGGA [A6U A24G C45G C46A], the self-cleavage turned out to be 0.6.
Turning to GGCAGAGCUCAACACAGCGUAGCAGACUGGCUGUGGCUAGACUGCA [G21A A25G G27C C46A], the self-cleavage is 0.54.
GGCAGAGUUCAACACAGCGUGGCAAAGAGGCUGUUGCUUGACUGCC [C8U U28A G35U A39U]: the self-cleavage was 0.09.
As to GGCAGAGCUAAACGCAGCGUGGCAAAGUGGGUUUGGCGAGACCGCC [C10A A14G C31G G33U U38G U43C], the self-cleavage was 0.01.
As for GGCAGAUCUCUACACAGCGUGGCAAAGUGGGUGUGGCUAGACUGCC [G7U A11U C31G], the self-cleavage stood at 0.04.
Turning to GGCAGAGCUCAACACAGCGUAGCAAAGUGGAUGUGGCUAGACCGCC [G21A C31A U43C], the self-cleavage amounted to 0.02.
Regarding GGCAGAGCUCAACAAAGCGUGGCAAAGUGGCUGUGGGUUGACUGCC [C15A C37G A39U], the self-cleavage turned out to be 0.01.
In the case of GGCAGAGCCCAACACAGCGUGGCAAAGUGGCUAUCGCUAGACUGCA [U9C G33A G35C C46A], the self-cleavage was 0.01.
In the case of GGUAGAGCUCAACACAGCGUGGCAUAGUGGCUGUGGCCAGACUGCC [C3U A25U U38C], the self-cleavage amounted to 0.18.
With GGCAGAGCUCAACAUGGCGUGGCAAAGUGGGUGUGGCUAGACUGCC [C15U A16G C31G] the figure was 0.01; with GGCAGAGCUCAACACAGCGUGGCAUAGGGGCUGUGGCUAGACUGAC [A25U U28G C45A], 0.04; with GGCAGAGCCCAACACAGCGUGGCAAAGUGGCUGUGACUAGACUGCU [U9C G36A C46U], 0.02.
Take GUAAGAGCACAACACAGCGUGGCAAAGUGGCUAUGGGUAGACUGCC [G2U C3A U9A G33A C37G]: the self-cleavage was 0.4.
Consider GGCAGAGCUCAACACAGCUUGGCAAACUGGCUGUGGCAAAACUGCC [G19U G27C U38A G40A], for which the self-cleavage was 0.03.
GGCAAAGCUCAACACAGCGUGGCGAAGUGGCUGUGCCUAGACUGCC [G5A A24G G36C]: the self-cleavage was 0.05.
UGCAGAGCUCAACACAGCGUGGCUAAGUGACUGUGGCUAGACUGCC [G1U A24U G30A]: the self-cleavage stood at 0.09.
For the variant GGCAGAGCUCAACAGACCGUGGAAAAGUGGCUGUGGCUAGACUGCC [C15G G17C C23A], the self-cleavage was determined as 0.04.

The record behind these values is the RNAGym collection of RNA variant scans (doi:10.7554/elife.90254).
